The GPR68 mutational scans of Howard et al. (2025)

B1: GPR68, Q15743 (parent)
chain: MGNITADNSSMSCTIDHTIHQTLAPVVYVTVLVVGFPANCLSLYFGYLQIKARNELGVYLCNLTVADLFYICSLPFWLQYVLQHDNWSHGDLSCQVCGILLYENIYISVGFLCCISVDRYLAVAHPFRFHQFRTLKAAVGVSVVIWAKELLTSIYFLMHEEVIEDENQHRVCFEHYPIQAWQRAINYYRFLVGFLFPICLLLASYQGILRAVRRSHGTQKSRKDQIQRLVLSTVVIFLACFLPYHVLLLVRSVWEASCDFAKGVFNAYHFSLLLTSFNCVADPVLYCFVSETTHRDLARLRGACLAFLTCSRTGRAREAYPLGAPEASGKSGAQGEEPELLTKLHPAFQTPNSPGSGGFPTGRLA

Key:
[1] = variants of: B1; assay: cAMP reporter score (Enrich2 score, wild type = 0); higher = more signal; HEK293T, FACS bins
[2] = variants of: B1; assay: surface expression score (Enrich2 score, wild type = 0); higher = more signal; HEK293T, FACS bins

Variant	cAMP reporter score ([1]; pH 5.5)	cAMP reporter score ([1]; pH 6)	cAMP reporter score ([1]; pH 6, modulator: ogerin)	cAMP reporter score ([1]; pH 6.5, modulator: ogerin)	surface expression score [2]
N8L	0.817	0.106	0.949	0.786	
N8M	-0.209	-0.914	-0.794	-0.736	-1.71
N8P	0.773	-0.565	0.301	0.272	0.183
N8Q	-0.261	-0.33	-0.623	-0.662	-0.897
N8R	-0.438	-0.722	-0.769	-0.235	-1.64
N8S	1.5	-0.138	1.03	0.371	-0.139
N8T	-0.824	-0.941	-1.05	-1.24	-1.35
N8V	-0.894	-0.782	-1.14	-1.06	-0.656
N8W	-0.38	-0.144	-0.94	-1.48	-1.49
N8Y	-0.362	-0.457	-0.598	-0.442	-0.839
N8_S9del	-0.71	-0.062	-0.184	-0.847	-1.4
N8del	-0.323	-0.116	-0.595	-1	0.126
S9_M11del	0.229	-0.709	-0.138	-0.802	0.045
S9_S10del	-0.003	0.518	-0.092	0.236	0.112
S9_S10insGSG	-0.093	0.02	0.178	0.102	-0.311
S10A	0.479	-0.13	0.277	0.561	1.09
S10C	-0.713	-1.76	-0.81	-0.906	-0.97
S10D	0.005		-0.042	0.426	-0.089
S10E	0.126	-1.05	0.221	-0.492	-0.953
S10F	-0.726	-1.04	-0.702	-1.02	-0.676
S10G	-0.24	-0.143	-0.422	-0.706	-1.34

Variant	cAMP reporter score ([1]; pH 5.5)	cAMP reporter score ([1]; pH 6)	cAMP reporter score ([1]; pH 6, modulator: ogerin)	cAMP reporter score ([1]; pH 6.5, modulator: ogerin)	surface expression score [2]
S10H	0.286	1.36	-0.132	0.05	-0.184
S10I	0.478	-0.44	0.465	0.638	-0.801
S10K	1.08		0.903	-0.374	0.191
S10L	-0.801	-0.309	-0.407	-0.005	-0.807
S10M	-0.033	-0.937	-0.104	-0.364	-1.11
S10N	-0.782	-0.533	-0.71	-0.957	0.155
S10P	-0.331	-0.678	-0.287	-0.422	-0.684
S10Q	-0.969	-0.34	-0.735	-0.251	-1.66
S10R	0.517	-0.014	0.22	0.252	-0.509
S10T	0.03	0.298	0.164	-0.269	-0.011
S10V	0.555	-0.302	0.026	-1.29	-0.671
S10W	1.23		0.451	0.559	
S10Y	0.197	0.342	0.233	0.228	-0.734
S10_M11insG	0.283	0.628	0.418	0.534	0.576
S10_M11insGSG	1.44	1.71	2.02	2.29	1.49
M11A	0.173	0.142	0.345	1.36	-0.272
M11C	-0.285	-0.189	-0.105	-0.198	-0.12
M11D	0.393	0.018	0.421	0.324	0.843
M11E	0.028	0.702	0.594	0.273	0.413
M11F	0.809	0.915	0.881	1.38	0.511
M11G	-0.153	-0.227	-0.044	0.647	-0.424

Variant	cAMP reporter score ([1]; pH 5.5)	cAMP reporter score ([1]; pH 6)	cAMP reporter score ([1]; pH 6, modulator: ogerin)	cAMP reporter score ([1]; pH 6.5, modulator: ogerin)	surface expression score [2]
M11H	-0.541	-0.245	-0.467	-0.475	-0.777
M11I	0.477	0.299	0.419	0.31	1.17
M11K	-0.352	0.206	-0.603	0.638	-0.83
M11L	0.514	0.084	0.291	0.028	0.503
M11N	0.201	-0.37	0.959	1.22	0.721
M11P	-0.344	-0.611	-0.855	-0.862	-0.729
M11Q	0.844	-0.494	0.645	0.984	0.331
M11R	0.177	0.144	0.749	0.224	-0.222
M11S	-0.533	0.764	-0.711	-0.101	0.666
M11T	-0.046	-0.268	0.244	-0.483	0.192
M11V	0.14	0.368	0.272	0.063	0.174
M11W	0.715		0.804	0.437	0.38
M11Y	0.323	0.878	0.924	1.13	0.439
M11_S12del	-0.482		-1.42		-0.411
M11_S12insG	1.51	0.676	1.46	1.1	0.472
M11_S12insGS	0.354	0.401	1.02	0.49	0.685
C13_I15del	-0.98	-0.422	-1.37	-0.718	-1.84
C13_T14del	-0.961	-0.5	-1.75	-0.691	-1.61
C13_T14insG	0.524	-0.363	0.047	-0.27	-0.929
C13_T14insGS	-0.37	-0.487	-0.365	-0.279	-1.19

Scores with a large standard error are left out. Two further conditions of the source, in which the scores hardly spread, are not listed. In variant names, del marks residues removed and ins residues inserted between the two positions. For some assays here: The data file names ogerin without a concentration.
